Measured values: PubChem BioAssay AID1345083 (National Center for Advancing Translational Sciences (NCATS), 2018)
Out of some 94,000 compounds screened, about 6,200 (6.6%) were called active. This list was built around the results that the source calls inconclusive (neither active nor inactive); the mix of calls is not that of the screen. The call rests on the fitted dose curve; in most records, active means well fitted inhibition curve with a large enough effect; inconclusive means small, poorly fitted or top-dose-only effect; inactive means flat fitted curve, though single readings scatter. A potency beside an inconclusive call is a rough fit, not a confirmed value.

Experiment: Cytotoxic Profiling in HEK 293 Cell Line of Diverse Libraries Using Quantitative High-Throughput Screening; further: nearly all actives have a fitted effect of over 60% in size
Conditions: HEK 293 viability, ATP luminescence (CellTiter-Glo), 48-72 h; series mostly up to 115 µM
Outline: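 HEK 293 cells at 250 cells/well were exposed to compounds by pintool transfer for 48 or 72 hr at 37 degree Celsius, 5% CO2. Viability was read as ATP-coupled luminescence with CellTiter-Glo after 10 min at room temperature.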
Potency means the concentration at half of the fitted maximal effect; tags describe the fitted curve by direction and shape.

Row | Structure (SMILES) | Potency
1 | COCCCNC(=O)N1CCCC(c2nc(C(C)C)no2)CCNC(=O)CC1 (stereo not given) | inactive
2 | CCC1=C(C(=O)OC)C(c2ccccc2Cl)N2C(CC(=O)N(C)Cc3ccccc3)=CSC2=N1 (stereo not given) | inconclusive: 50.1 µM [inhibitor, partial curve, poor fit]
3 | O=C(Nc1cccc(-n2cccn2)c1)C1CCCN(Cc2cccc(F)c2F)C1 (stereo not given) | active: 31.6 µM
4 | Cc1ccc(-c2cc(N3CCCN(C(=O)c4ccccn4)CC3)n[nH]2)cc1C | inconclusive: 89.1 µM [inhibitor, single point]
5 | Cc1ccc(CN2CCc3nc(C(C)C)nc(-c4ccc(O)cc4)c3C2)cc1 | inconclusive: 56.2 µM [inhibitor, partial curve, poor fit]
6 | Cc1cnc(CC2CCN(C(=O)N(C)C)C2)n1CC1CC1 (stereo not given) | inconclusive: 89.1 µM [inhibitor, single point]
7 | Cc1oc2ccn(Cc3cccc(F)c3)c(=O)c2c1C(=O)NC(C)c1ccccn1 (stereo not given) | inconclusive: 44.7 µM [inhibitor, partial curve, poor fit]
8 | COc1ccc(C(=O)N2CCCC(C(=O)N3CCCC3c3nc4ccncc4[nH]3)C2)cc1 (stereo not given) | inactive
9 | O=C(COc1ccccc1)NC1CCCc2c1[nH]c1ccccc21 (stereo not given) | inconclusive: 28.2 µM [inhibitor, full curve, poor fit]
10 | O=C(NC1CC1)c1ccccc1OCC1CCCN(C2CCCCC2)C1 (stereo not given) | inconclusive: 100 µM [inhibitor, single point]
11 | CCOCCNc1ncnc2c1CN(C1CCC1)C(=O)CN2C | inconclusive: 63.1 µM [inhibitor, full curve]
12 | Cc1ccc(CN2CCC3(CC2)CNc2ccccc2[S+](=O)([O-])N3)cc1 | inconclusive: 50.1 µM [inhibitor, partial curve, poor fit]
13 | CCCC(C)NC(=O)c1cccc(-c2ccc(OC)nn2)c1 (stereo not given) | inconclusive: 112 µM [inhibitor, partial curve]
14 | COc1ccc(-c2nc(-c3ccccc3)nc3c2CN(C(=O)N(C)C)CC3)cc1 | inconclusive: 50.1 µM [inhibitor, partial curve, poor fit]
15 | Cc1cc(C)cc(-c2ccc(CN3CCCC(NC(=O)Cc4ccc(F)cc4)C3)cc2)c1 (stereo not given) | active: 31.6 µM
16 | COc1ccc(C(=O)N2CCC3(CC2)CC(N(C(=O)c2ccccc2)C2CC2)CCO3)cn1 (stereo not given) | inactive
17 | O=C(Cc1cccs1)N1CCOc2ccc(CN3CCc4ccccc4C3)cc2C1 | inconclusive: 50.1 µM [inhibitor, partial curve, poor fit]
18 | CNC(=O)c1cc(C2CC2)nc2c1c(C1CCCN1C(=O)Cc1cccc(Cl)c1)nn2C (stereo not given) | inconclusive: 50.1 µM [inhibitor, partial curve, poor fit]
19 | Cc1ccc2nc(C3CCCN(Cc4ccc(-c5cncnc5)cc4)C3)[nH]c(=O)c2c1 (stereo not given) | inactive
20 | COc1cccc(CC(=O)N2CCC(N3C(=O)C(OCC4CC4)C34CCCCC4)CC2)c1 (stereo not given) | inconclusive: 79.4 µM [inhibitor, partial curve, poor fit]

Row | Structure (SMILES) | Potency
21 | O=C(Nc1ccc(Cl)cc1)c1nc2c(o1)CCN(Cc1ccc(F)cc1F)CC2 | inconclusive: 50.1 µM [inhibitor, partial curve, poor fit]
22 | COc1ccc(-c2cn3c(n2)N(C(=O)c2cccs2)CCC3)cc1 | inconclusive: 39.8 µM [inhibitor, partial curve, poor fit]
23 | Cc1noc(C)c1-c1cc(-c2ccccc2O)cn2cncc12 | active: 50.1 µM
24 | O=C1Cc2c(-c3cccc4ccccc34)n[nH]c2CN1Cc1ccccn1 | inconclusive: 112 µM [inhibitor, partial curve]
25 | O=C(c1ccccc1Cl)N1CCCC(C(=O)N2CCC(c3nc4ccncc4[nH]3)C2)C1 (stereo not given) | inactive
26 | COc1cccc([S+](=O)([O-])N2CCCN(c3ccc4nnc(C)n4n3)CC2)c1 | inactive
27 | C=CCCC(CN1CCSCC1)Oc1ncc(C)c(N(C)C)n1 (stereo not given) | inconclusive: 10 µM [inhibitor, full curve]
28 | O=C(NCc1ccccc1Cl)c1nc2sccn2c1-c1ccc(C(F)(F)F)cc1 | inconclusive: 22.4 µM [inhibitor, full curve]
29 | COc1ccc(NC(=O)c2c(C)oc3ccn(Cc4ccc(F)cc4)c(=O)c23)c(OC)c1 | inconclusive: 39.8 µM [inhibitor, partial curve]
30 | COc1cc(OC)cc(C(=O)N2[C@@H]3CC[C@H]2CC(NC(=O)c2ccc(F)cc2)C3)c1 (stereo not given in full) | inconclusive: 100 µM [inhibitor, partial curve, poor fit]
31 | CNC(=O)c1cc(-c2ccccc2C(F)(F)F)nc2c1cnn2C | inactive
32 | O=C(O)[C@H]1C[C@@H](C(=O)NCc2ccncc2)CN(C(=O)C2CC2)C1 | inconclusive: 89.1 µM [inhibitor, single point]
33 | Clc1ccccc1C1Cn2nnc(-c3noc(-c4cc(C5CC5)[nH]n4)n3)c2CO1 (stereo not given) | inconclusive: 100 µM [inhibitor, single point]
34 | COc1ccc(-c2noc([C@@H]3CCCN3C(=O)C3CCN(C(=O)c4ccccc4)CC3)n2)cc1 | inconclusive: 89.1 µM [inhibitor, single point]
35 | CC(C)(C)NC(=O)N1CCCCC1c1nc(CCOc2ccc(F)cc2)no1 (stereo not given) | inconclusive: 56.2 µM [inhibitor, partial curve, poor fit]
36 | CCn1ncc(C(=O)N[C@@H]2CN(Cc3ccccn3)C[C@H]2CN(C)C)c1C | inconclusive: 89.1 µM [inhibitor, single point]
37 | CCCCCCN1CCC2(CC1)Cc1ccccc1CNC2=O | inactive
38 | Cn1c(C(=O)N2CCN(c3ccccc3)CC2)cc2c1CCN(Cc1cccc(F)c1)C2 | inconclusive: 50.1 µM [inhibitor, partial curve, poor fit]
39 | O=C(Nc1ccccc1)N1CCC(C(=O)N2CCC(N3Cc4ccccc4C3=O)CC2)CC1 | inconclusive: 89.1 µM [inhibitor, partial curve, poor fit]
40 | CCOc1ccccc1NC(=O)CC1CCCN(c2cnn(CCOC)c(=O)c2)C1 (stereo not given) | inactive
